{"source": "PubChem BioAssay AID2451", "about": "(National Center for Advancing Translational Sciences (NCATS), 2010)", "note": "The whole screen tested about 290,000 compounds, of which about 2,100 (0.72%) were called active. Inconclusive results, whose numbers are uncertain, are shown with a selection of clear calls. The call rests on the fitted dose curve; in most records, active means well fitted inhibition curve with a large enough effect; inconclusive means small, poorly fitted or top-dose-only effect, or effect the other way; inactive means flat fitted curve, though single readings scatter. Potencies beside an inconclusive call are fits to weak or partial responses and may not hold up. On the % scale 0 is the no-effect control and ±100 the full control effect; potency means the concentration at half of the fitted maximal effect; tags describe the fitted curve by direction and shape."}
{"biological_target": "Fructose-bisphosphate aldolase (Giardia intestinalis (strain ATCC 50803 / WB clone C6)) (UniProt A8B2U2)", "sequence (A8B2U2 whole entry, looked up)": "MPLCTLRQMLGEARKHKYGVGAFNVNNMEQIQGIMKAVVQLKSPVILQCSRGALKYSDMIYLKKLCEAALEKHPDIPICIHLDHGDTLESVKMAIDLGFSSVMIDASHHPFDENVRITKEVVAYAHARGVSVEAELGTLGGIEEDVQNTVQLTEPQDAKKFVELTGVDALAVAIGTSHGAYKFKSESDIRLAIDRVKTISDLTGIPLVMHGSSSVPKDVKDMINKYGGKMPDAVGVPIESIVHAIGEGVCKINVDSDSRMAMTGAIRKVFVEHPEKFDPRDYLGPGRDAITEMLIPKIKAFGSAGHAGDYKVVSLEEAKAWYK", "experiment": "qHTS Assay for Inhibitors of Fructose-1,6-bisphosphate Aldolase from Giardia Lamblia; further: nearly all actives have a fitted effect of over 55% in size", "settings": "purified Giardia FBPA; activity, negative = inhibition: at 59.6 µM (top of the series) unless noted", "outline": "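40 nM FBPA preincubated 10 min at RT with compound (up to 57.5 uM final), then substrate plus GAPDH/TPI/NAD/arsenate coupling and diaphorase/resazurin added. Fluorescence read after 20 min at RT, 525/598 nm.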"}
{"smiles": "O=C(NC(=S)Nc1cccc(Cl)c1N1CCCCC1)c1ccco1", "Potency": "inactive"}
{"smiles": "Oc1c(Br)cc(/C=N/Nc2nncc3ccccc23)cc1Br", "Potency": "inconclusive: 20 µM [inhibitor, partial curve]"}
{"smiles": "Cc1cc(C)c2nc(-c3ccccn3)cc(C(=O)n3cccn3)c2c1", "Potency": "inactive"}
{"smiles": "CCCCn1c(N)c(C(=O)OCC2CCCO2)c2nc3ccccc3nc21", "note": "(stereo unspecified)", "Potency": "inconclusive: 17.7 µM [inhibitor, single point]"}
{"smiles": "Cc1[nH]c(=O)[nH]c(=O)c1/C=N/NC(=O)CCCCCNC(=O)OC(C)(C)C", "Potency": "inconclusive: 17.7 µM [inhibitor, partial curve]"}
{"smiles": "COc1ccc(NC(=O)c2[nH]c(C)c(C(C)=O)c2C)cc1Cl", "Potency": "inconclusive: 44.6 µM [inhibitor, partial curve]"}
{"smiles": "O=C(C1CCCN1S(=O)(=O)c1ccc(Cl)c(Cl)c1)N1CCCCC1", "note": "(stereo unspecified)", "Potency": "inconclusive: 3.97 µM [inhibitor, single point]"}
{"smiles": "COc1ccc(NC(=O)[C@@H]2[C@@H]3C(=O)N(C4CCCCC4)C(=O)[C@@H]3C3c4ccccc4C=CN32)cc1", "note": "(stereo partly specified)", "Potency": "inconclusive: 3.15 µM [inhibitor, full curve]"}
{"smiles": "CCOC(=O)C1CCCN(CCC(=O)Nc2ccc(Br)c(C)c2)C1", "note": "(stereo unspecified)", "Potency": "active: 14.1 µM"}
{"smiles": "CC(C)S(=O)(=O)c1cnc(-c2ccccn2)nc1N", "Potency": "inconclusive: 15.8 µM [inhibitor, partial curve]"}
{"smiles": "Nc1c(-c2ccccc2)cnn1-c1ccc(C(=O)O)cc1", "Potency": "inactive"}
{"smiles": "O=C(/C=C/c1ccco1)NCCCN1CCN(CCCNC(=O)/C=C/c2ccco2)CC1", "Potency": "inactive"}
{"smiles": "CCOc1ccccc1NC(=O)Nc1ccc(CC#N)cc1", "Potency": "inactive"}
{"smiles": "CC(C)c1ccc(/C=C/C(=O)Nc2nn[nH]n2)cc1", "Potency": "inconclusive: 28.1 µM [inhibitor, single point]"}
{"smiles": "O=C(N/N=C/c1ccc(-c2ccccc2[N+](=O)[O-])o1)[C@H]1C[C@@H]1c1ccccc1", "Potency": "inconclusive: 1.58 µM [inhibitor, full curve]"}
{"smiles": "CCC1CCCCN1C(=S)NC(=O)c1cc(S(=O)(=O)N2CCOCC2)ccc1C", "note": "(stereo unspecified)", "Potency": "inconclusive: 17.7 µM [inhibitor, single point]"}
{"smiles": "COc1ccc(C(=O)NC(=S)N2CCOCC2)cc1OC", "Potency": "inconclusive: 15.8 µM [inhibitor, partial curve]"}
{"smiles": "COc1ccc(OC)c(/C(O)=C/C(=O)C(=O)Nc2ccccc2OC)c1", "Potency": "inconclusive: 19.9 µM [inhibitor, single point]"}
{"smiles": "Cc1cccc(S(=O)(=O)C(C#N)c2nc3ccccc3nc2N2CC(C)OC(C)C2)c1", "note": "(stereo unspecified)", "Potency": "inconclusive: 7.94 µM [inhibitor, single point]"}
{"smiles": "CCCC(=O)NC(=S)NNC(=O)c1ccc([N+](=O)[O-])cc1", "Potency": "inconclusive: 19.9 µM [activator, single point]"}
{"smiles": "C1CCCN(C2CCNCC2)CC1", "Potency": "inconclusive: 14.1 µM [inhibitor, partial curve]"}
{"smiles": "COc1cc2c(cc1OC)C(C)N(C(=O)c1nccnc1C(=O)O)CC2", "note": "(stereo unspecified)", "Potency": "inconclusive: 15.8 µM [inhibitor, single point]"}
{"smiles": "CCOc1ccc(C2C(C(=O)c3ccco3)=C(O)C(=O)N2Cc2cccnc2)cc1OC", "note": "(stereo unspecified)", "Potency": "inactive"}
{"smiles": "COc1ccccc1CNC(=O)CSc1ccc(C)cc1", "Potency": "inactive"}
{"smiles": "CCC(Sc1ccc(C(=O)O)cc1)C(=O)O", "note": "(stereo unspecified)", "Potency": "inactive"}
{"smiles": "COC(=O)c1cc(CN2CCN(c3ccccc3C)CC2)ccc1O", "Potency": "inconclusive: 22.3 µM [inhibitor, partial curve]"}
{"smiles": "COc1ccc(-c2cc(C(F)F)n3ncc(C(=O)N4CCc5ccccc54)c3n2)cc1", "Potency": "inactive"}
{"smiles": "Cc1ccc(NC(=O)CSc2nc(O)c(Cc3ccccc3)c(=O)n2-c2ccccc2)cc1", "Potency": "inactive"}
{"smiles": "O=C(CCN1CCCCC1)Nc1ccc2c(c1)C(=O)c1ccc(NC(=O)CCN3CCCCC3)cc1C2=O", "Potency": "inactive"}
{"smiles": "CN1C(=O)C2(c3ccccc31)C1CCCC=C1C(C#N)=C(N)C2(C#N)C#N", "note": "(stereo unspecified)", "Potency": "inconclusive: 5.61 µM [inhibitor, full curve]"}
{"smiles": "Cc1nc(NC(=S)NC(=O)c2cccs2)sc1C(=O)N(C)C", "Potency": "inconclusive: 4.46 µM [inhibitor, full curve]"}
{"smiles": "Cn1cccc1C(=O)N/N=C/c1c(Cl)cccc1Cl", "Potency": "inactive"}
{"smiles": "Cc1cc(N2CCN(C)CC2)nc2ccc(NC(=O)CCC3CCCC3)cc12", "activity, negative = inhibition": "inconclusive: 42.2% [activator]"}
{"smiles": "Cc1cc(C)c(NC(=S)N2CCCC2C(=O)O)c(C)c1", "note": "(stereo unspecified)", "Potency": "inconclusive: 17.7 µM [inhibitor, single point]"}
{"smiles": "NC(=O)CN1C(=O)/C(=c2\\sc3nc(=O)c(Cc4ccccc4)nn3c2=O)c2ccccc21", "Potency": "inconclusive: 11.2 µM [inhibitor, partial curve]"}
{"smiles": "CCN1C(=NCCc2c[nH]c3ccccc23)N[C@@H](c2ccccc2)C(C(=O)OC)=C1C", "Potency": "inconclusive: 17.8 µM [inhibitor, partial curve]"}
{"smiles": "CCN(c1ccccc1)S(=O)(=O)c1ccc(C(=O)Nc2nnc(CSC)o2)cc1", "Potency": "active: 15.8 µM"}
{"smiles": "CCOc1ccc(CNCCN2CCCC2)cc1", "Potency": "inconclusive: 20 µM [inhibitor, partial curve]"}
{"smiles": "Cc1ccc(SCC(=O)NCCSC(C)(C)C)cc1", "Potency": "inactive"}
{"smiles": "CCCC[C@]12Cc3cc(OC)c(OC)cc3C(O1)C1=C(CC3(CCCCC3)OC1=O)O2", "Potency": "inconclusive: 2.82 µM [inhibitor, partial curve]"}
{"smiles": "COc1cc(N2CN=c3s/c(=C\\c4ccccn4)c(=O)n3C2)cc(OC)c1OC", "Potency": "inconclusive: 22.3 µM [inhibitor, partial curve]"}
{"smiles": "FC(F)(F)c1ccc(NCCc2ccccc2)nc1", "Potency": "inactive"}
{"smiles": "CCCCC[C@H](O)/C=C/[C@@H]1[C@H]2C/C(=C/CCCC(=O)O)O[C@H]2C[C@H]1O", "Potency": "inactive"}
{"smiles": "N#CC1=C(N)n2c(s/c(=C\\c3ccco3)c2=O)=C(C#N)C1c1ccco1", "note": "(stereo unspecified)", "Potency": "inconclusive: 25.1 µM [inhibitor, partial curve]"}
{"smiles": "COc1ccc(NC(=O)CN(C)CC(=O)Nc2ccccc2SC)cc1", "Potency": "inconclusive: 19.9 µM [inhibitor, partial curve]"}
{"smiles": "Cc1ccc(S(=O)(=O)N2CCOCC2)cc1NC(=O)CNCc1ccccn1", "Potency": "inconclusive: 50 µM [inhibitor, partial curve, poor fit]"}
